PubChem BioAssay AID1508642 (National Center for Advancing Translational Sciences (NCATS), 2021)
Hit rate of the full screen: of about 43,000 compounds, about 200 (0.47%) were called active. Another 12% or so got no clear call; they are omitted. The call rests on the fitted dose curve; in most records, active means well fitted cell-killing curve with a large enough effect; inconclusive means small, poorly fitted or top-dose-only effect, or effect the other way; inactive means flat fitted curve, though single readings scatter. Some of the results follow.

Assay: Cell viability qHTS assay in S16 Pmp22-F2sN cells; further: nearly all actives have a fitted effect of over 65% in size
Conditions: S16 Pmp22-F2sN Schwann cells viability, CellTiter-Glo, 24 h; series mostly up to 57.5 µM; activity change, negative = cytotoxicity: at the top concentration
Method in brief: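 S16 Pmp22-F2sN Schwann cells (500-1,000/well) in phenol-red-free DMEM with 10% FBS received 23 nL compound by pin tool for 24 h at 37 °C. Viability was then read as CellTiter-Glo luminescence after 15 min at room temperature.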
On the % scale 0 is the no-effect control and ±100 the full control effect; potency means the concentration at half of the fitted maximal effect.

Row | Compound | activity change, negative = cytotoxicity | Potency
1 | CCN1CCN(c2ncc3c(n2)CCN(Cc2sccc2C)C3)CC1 | inactive: -17.4% | –
2 | CCOc1ccc(Nc2nc(C)c(NC(=O)c3ccc(C)cc3)c(Nc3ccc(OCC)cc3)n2)cc1 | inactive: -9.86% | –
3 | COc1cc(NC(=O)CC(C)S(=O)(=O)c2ccc3c(c2)CCN3C(C)=O)cc(OC)c1OC (stereo not given) | inactive: 2.28% | –
4 | Cc1ccccc1NC(=O)C(=O)NCC1(c2ccccc2)CCCC1 | inactive: 11.4% | –
5 | COc1ccc(Cl)cc1NC(=O)c1cnc(SC)nc1-c1ccccc1 | inactive: -2.75% | –
6 | CN(CC(=O)Nc1ccc(Cl)cc1F)S(=O)(=O)c1ccc2c(c1)n(C)c(=O)c(=O)n2C | inactive: 0.84% | –
7 | CCc1ccc(C(c2ccccc2)c2c[nH]c3ccc(C)cc23)s1 (stereo not given) | inactive: 1.81% | –
8 | CCc1cccc(-n2nnc(-c3nsc(NC(=O)c4ccc(C)cc4)n3)c2C)c1 | inactive: -19.8% | –
9 | Cc1sc2ncn(CC(=O)N3CCN(c4ccccc4)CC3)c(=O)c2c1S(=O)(=O)N1CCN(c2ncccn2)CC1 | inactive: 10.7% | –
10 | Cc1ccc(NC(=O)CN(C)S(=O)(=O)c2cccc3cccnc23)cc1F | inactive: 1.95% | –
11 | CCOC(=O)Cc1ccc(NC(=O)N2CCc3c(sc4c3CCCC4)C2c2ccc(F)cc2)cc1 (stereo not given) | inactive: -4.56% | –
12 | COc1ccc(Cl)cc1Nc1nc2ccc(C(=O)c3ccccc3)cc2n2cnnc12 | inactive: 10.8% | –
13 | COc1ccc(Br)cc1CNC(=O)c1cnc2sc(N3CCCC3)nn2c1=O | inactive: -0.59% | –
14 | CN1CCN(C(CNC(=O)c2ccccc2F)c2ccc3c(c2)OCO3)CC1 (stereo not given) | inactive: 19.5% | –
15 | O=C(Cn1c(=O)nc(-c2ccccc2)c2ccccc21)NCCc1ccc(Cl)cc1 | inactive: 8.15% | –
16 | COc1ccc(C(=O)N(Cc2cc(OC)c(OC)c(OC)c2)c2ccccn2)cc1 | inactive: 12.9% | –
17 | Cc1ccc(C)c(NC(=O)Cn2nnc(C(=O)NCc3ccccc3Cl)c2N)c1 | – | active: 14.1 µM
18 | Fc1ccc(-n2ncc3c(NCCCn4ccnc4)ncnc32)cc1 | inactive: -13% | –
19 | COc1cccc(C2NC(=O)c3n[nH]c(-c4cccs4)c32)c1 (stereo not given) | inactive: 0.567% | –
20 | CCCCN(CC)CCNC(=O)CCn1cnc2onc(-c3ccc(F)cc3)c2c1=O | inactive: -18.3% | –
21 | COc1ccc(NC(=O)c2sc3nc(-c4cc5ccc(OC)cc5oc4=O)[nH]c(=O)c3c2C)cc1 | inactive: 11.6% | –
22 | Cc1cccc(-n2cc(-c3ccccc3)c3c(N4CCC(C)CC4)ncnc32)c1 | inactive: 10.5% | –
23 | COc1cc(NC(=O)NCC2CCN(Cc3ccccc3Cl)CC2)cc(OC)c1OC | inactive: 0.604% | –
24 | Cc1cc2[nH]c(=O)c(=O)[nH]c2cc1S(=O)(=O)N1CCN(c2cccc(C(F)(F)F)c2)CC1 | inactive: 20.1% | –

Row | Compound | activity change, negative = cytotoxicity | Potency
25 | COc1ccc(OC)c(CCNC(=O)CCc2cn(Cc3cc(C)ccc3C)c3ccccc23)c1 | inactive: -14.3% | –
26 | O=C(Cn1c(=O)c2cccn2c2ccc(F)cc21)N1CCN(c2ccccc2F)CC1 | inactive: 5.91% | –
27 | Cc1ccc(Cl)cc1NS(=O)(=O)c1ccc2c(c1)NC(=O)CCS2 | inactive: -0.191% | –
28 | CCCn1c(=O)c2sccc2n2c(CCCC(=O)NC3CCC(C)CC3)nnc12 (stereo not given) | inactive: 2.93% | –
29 | CCCCOc1ccc(C(=O)NCCc2csc(-c3cccc(F)c3)n2)cc1 | inactive: 18.9% | –
30 | Cc1ccc(-n2ncc(C(=O)NCc3cccs3)c2C2CCN(C(=O)OC(C)(C)C)CC2)cc1 | inactive: -17.8% | –
31 | Cc1ccc(CNC(=O)CN2C(=O)CCn3nc(-c4ccccc4)cc32)cc1 | inactive: 9.46% | –
32 | COc1ccccc1NC(=O)C(C)Sc1nnc2ccc3ccccc3n12 (stereo not given) | inactive: 10.2% | –
33 | CCc1cccc2c(-c3ccccc3)nc(SCC(=O)Nc3ccccc3OC)nc12 | inactive: -3.2% | –
34 | COc1ccc(CNC(=O)C(C)Sc2nc(-c3ccccc3)cc(C(F)(F)F)n2)cc1 (stereo not given) | inactive: -10.1% | –
35 | COc1ccc(OCC(=O)N2CCC(c3nc4ccccc4s3)CC2)cc1 | inactive: -20.1% | –
36 | CCCCOc1ccc(C(=O)Nc2ccc3oc(-c4cccnc4)nc3c2)cc1 | inactive: 0.251% | –
37 | O=C(NC1CCCC1)c1ccc(CSc2nc3ccncc3n2Cc2cccc(F)c2)cc1 | inactive: -22.7% | –
38 | CCOc1cc(C(=O)NCc2ccc3c(c2)CCN3C(=O)c2ccc(F)cc2)cc(OCC)c1OCC | inactive: -5.56% | –
39 | CCc1ccccc1NC(=O)C1CCN(S(=O)(=O)c2ccccc2)CC1 | inactive: 1.93% | –
40 | Cc1cccc(C(=O)Nc2ccc(-c3nc4ncccc4o3)cc2C)c1 | inactive: 9.39% | –
41 | CC(C)OCCCNC(=O)c1cn(C)c2ccc(S(=O)(=O)N3CCCCCC3)cc2c1=O | inactive: -1.23% | –
42 | Cc1cccc(S(=O)(=O)c2cn(Cc3ccccc3)c3cc(N4CCOCC4)c(F)cc3c2=O)c1 | inactive: -25.4% | –
43 | Cc1c2cnn(CC(=O)NCC(C)c3ccccc3)c(=O)c2c(C)n1Cc1cccc(Cl)c1 (stereo not given) | inactive: 1.01% | –
44 | Cc1ccc(CNC(=O)c2ccc3c(c2)c(C)c(C)n3Cc2ccccc2)o1 | inactive: -12.1% | –
45 | O=C(COc1ccccc1Cl)OCc1cc(=O)n2nc(C3CCCCC3)sc2n1 | inactive: -4.17% | –
46 | COc1cccc(C(=O)NCCc2csc(-c3ccc(Cl)cc3)n2)c1 | inactive: -4.46% | –
47 | Cc1ccc(NC(=O)C2CCN(S(=O)(=O)c3ccc4[nH]c5c(c4c3)CCCCC5)CC2)cc1 | inactive: -5.4% | –
48 | COc1ccccc1N1CCN(c2ncnc3onc(-c4ccc(F)cc4)c23)CC1 | inactive: 0.0297% | –

Row | Compound | activity change, negative = cytotoxicity | Potency
49 | COC(=O)c1c(NC(=O)CCCOc2ccc(C(C)(C)C)cc2)sc2c1C(C(=O)OC)CC2 (stereo not given) | inactive: -1.84% | –
50 | COc1ccc(N2CCN(C(=O)CCn3c(=O)[nH]c4cc(OC)c(OC)cc4c3=O)CC2)cc1 | inactive: -4.41% | –
51 | CC1CN(C(=O)N2CCC(C(=O)NCc3cccs3)CC2)c2cc(Cl)ccc2O1 (stereo not given) | inactive: -4.92% | –
52 | Cc1ccc(C)c(NC(=O)C2CCCN(c3nc4ccccc4s3)C2)c1 (stereo not given) | inactive: 1.91% | –
53 | CCOC(=O)CSC1=Nc2ccccc2C2=NC(CCC(=O)NCc3ccc(F)cc3)C(=O)N12 (stereo not given) | inactive: -2.05% | –
54 | O=C(NCc1cccc(F)c1)C1CCCN(C(=O)N2CCOc3ccccc32)C1 (stereo not given) | inactive: -3.59% | –
55 | COc1ccc(OC)c(CNC(=O)c2ccc(C)c(NC(=O)c3nsc4ccccc34)c2)c1 | inactive: -0.512% | –
56 | Cc1ccc(Cn2c(CNS(=O)(=O)c3cccc([N+](=O)[O-])c3)nc3cccnc32)cc1 | inactive: -9.74% | –
57 | CCOc1ccc(OCC)c(NS(=O)(=O)c2cc(-c3cnc(C)o3)ccc2OC)c1 | inactive: -27.6% | –
58 | COc1ccc(-c2cc(C)no2)cc1S(=O)(=O)Nc1c(C)cc(C)cc1C | inactive: -14.6% | –
59 | COC(=O)c1cc2sc(Cl)cc2n1Cc1c(C)cc(C)cc1C | inactive: 0.887% | –
60 | CCn1c2ccccc2c2cc(NC(=O)COc3ccc(C)cc3C)ccc21 | inactive: -2.41% | –
61 | Cc1ccccc1-n1nc(CO)c(C(=O)NCc2cccnc2)n1 | inactive: 5.21% | –
62 | CCc1cccc(C)c1NC(=O)Cn1cnc2c1c(=O)n(C)c(=O)n2C | inactive: 4.1% | –
63 | COCCNC(=O)Nc1cc(C(=O)NCc2ccc(C(C)C)cc2)ccc1N1CCCC1 | inactive: 7.97% | –
64 | COc1ccc(OC)c(NC(=O)c2c(N3CCCC3=O)c3cc(OC)ccc3n2C)c1 | inactive: 14% | –
65 | Cc1nc2nncn2c(Nc2ccccc2)c1C | inactive: -20.5% | –
66 | CCc1nn2c(=O)cc(COC(=O)c3cccc(NC(=O)c4cccs4)c3)nc2s1 | inactive: 1.21% | –
67 | CCOC(=O)c1c(-c2ccccc2)csc1NC(=O)c1cc(=O)c2ccc(C)cc2o1 | inactive: -8.92% | –
68 | COc1ccc(CNC(=O)Cn2ncc3c4ccccc4n(Cc4cccc(Cl)c4)c3c2=O)cc1 | inactive: 3.91% | –
69 | COc1ccc(OC)c(NCc2cccn2-c2nnc(N3CCCCC3)s2)c1 | inactive: 11.3% | –
70 | CN1CCc2c(sc3c2C(=O)NC(c2ccc(OC(=O)c4ccccc4)cc2)N3)C1 (stereo not given) | inactive: -2.31% | –
71 | Cc1ccc(C)c(S(=O)(=O)c2cn(C)c3cc(N4CCCCC4C)c(F)cc3c2=O)c1 (stereo not given) | inactive: -18.9% | –
72 | COc1ccccc1CNC(=O)C1CCCN(C(=O)c2cnn(-c3ccc(F)cc3)c2-n2cccc2)C1 (stereo not given) | inactive: -1.33% | –

Row | Compound | activity change, negative = cytotoxicity | Potency
73 | Cc1ccc(NC(=O)C(Cc2ccccc2)n2cccc2)cc1 (stereo not given) | inactive: 1.22% | –
74 | COCCCn1c(=O)c2sccc2n2c(CCCC(=O)Nc3cc(C)cc(C)c3)nnc12 | inactive: 11.9% | –
75 | Cc1cccc(-c2nc3c4ccccc4nc(N4CCN(c5ccccc5F)CC4)n3n2)c1 | inactive: -1.58% | –
76 | Cc1ccc(CNC(=O)NCc2noc3ccc(C)cc23)cc1 | inactive: 1.59% | –
77 | COc1ccc(C(=O)NCCn2cc(SCC(=O)Nc3ccc(C)cc3)c3ccccc32)cc1 | inactive: 0.901% | –
78 | Cn1c(=O)c2c(-c3ccc(Cl)cc3)n(Cc3ccc(Cl)cc3)cc2n(C)c1=O | inactive: 1.36% | –
79 | COc1ccc(C)cc1NC(=O)c1ccc2c(=O)n3c(nc2c1)CCCCC3 | inactive: -15.2% | –
80 | CCN(C(=O)CCS(=O)(=O)c1cc2[nH]c(=O)c(=O)[nH]c2cc1C)c1ccccc1 | inactive: 8.26% | –
81 | COc1ccc(-c2noc(N3CCC(C(=O)Nc4ccc(F)cc4Cl)CC3)n2)cc1 | inactive: -3.5% | –
82 | Cc1ccc2c(c1)C(=O)OC(C(=O)Nc1ncc(Cc3ccc(C(C)C)cc3)s1)C2 (stereo not given) | inactive: 3.85% | –
83 | CCOc1ccc(C(c2c(O)cc(C)n(CCOC)c2=O)N2CCN(c3ccccc3)CC2)cc1 (stereo not given) | inactive: -9.55% | –
84 | COc1cccc(CNC(=O)C(CC(C)C)NS(=O)(=O)c2ccc3c(c2)oc(=O)n3C)c1 (stereo not given) | inactive: -20.7% | –
85 | Cc1c2cnn(CC(=O)N3CCCCC3)c(=O)c2c(C)n1Cc1ccc(F)cc1 | inactive: 3.6% | –
86 | CCCN(CCC)C(=O)Cn1c(=O)n(-c2cccc(OC)c2)c(=O)c2c(C)c(C(=O)N(C)C)sc21 | inactive: -0.302% | –
87 | Cc1ccc(N(CC(=O)N2CCN(c3ccc(Cl)cc3)CC2)S(=O)(=O)c2c(C)nn(C)c2C)cc1 | inactive: -4.4% | –
88 | O=C(NCCc1ccc(F)cc1)C(=O)NCC(c1cccs1)S(=O)(=O)c1ccc(F)cc1 (stereo not given) | inactive: -1.32% | –
89 | Cc1ccc(-c2cn3nc(N4CCCC(C(=O)Nc5ccc(F)cc5)C4)sc3n2)cc1 (stereo not given) | inactive: -7.55% | –
90 | Cc1ccc(CN2C(=O)c3ccccc3Sc3ccc(C(=O)NC4CCCC4)cc32)cc1 | inactive: -0.209% | –
91 | CCNC(=O)c1c2c(nc3ccccc13)C(=O)N(C1CCCCC1)C2 | inactive: 11.4% | –
92 | O=C(Cn1c(SCc2ccccc2F)nc2cccnc21)Nc1ccc(F)c(Cl)c1 | inactive: -23.2% | –
93 | CCc1cccc(NC(=O)Cn2ncc3c([nH]c4ccc(C)cc43)c2=O)c1 | inactive: 9.53% | –
94 | CCOc1ccccc1NC(=O)CCc1c(C)nc2c3cccnc3nn2c1C | inactive: -3.26% | –
95 | CCc1cccc(NC(=O)CN(c2ccc(C)cc2)S(=O)(=O)c2cccs2)c1 | inactive: -2.73% | –
